From the supplement of paper PMC12217912
Some of the results follow. The full chains were built here from the parent and the listed change. Inactive controls read about 0.05.

B1: TEV protease; numbered along this chain (parent)
chain: MGESLFKGPRDYNPISSSICHLTNESDGHTTSLYGIGFGPFIITNKHLFRRNNGTLVVQSLHGVFKVKDTTTLQQHLVDGRDMIIIRMPKDFPPFPQKLKFREPQREERICLVTTNFQTKSMSSMVSDTSCTFPSGDGIFWKHWIQTKDGQCGSPLVSTRDGFIVGIHSASNFTNTNNYFTSVPKNFMELLTNQEAQQWVSGWRLNADSVLWGGHKVFMVKPEEPFQPVKEATQL

Variants of: B1
Assay: raw area under fraction-flipped curve 0-4 h after induction (AUC4h, not background-subtracted), DNA-recorder readout of cleavage of the substrate (dimensionless); higher = more cleavage of the substrate by the protease variant
Settings: temperature: 34 °C; time window: 0-4 h after rhamnose induction
Protocol: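 In vivo DNA recorder in E. coli TOP10(DE3) ΔrhaA at 34 °C. Each TEVp single-site mutant (parent TEVp 0) is paired with a single-site variant of the 7-mer TEVs (canonical ENLYFQ|S). The substrate sits between flexible linkers in a Bxb1-sfGFP-TEVs-SsrA fusion, so cleavage stabilises Bxb1 and speeds flipping of a recombination array, read by NGS. The value is the raw area under the fraction-flipped curve over 0-4 h after rhamnose induction (AUC4h), with ≥20 reads per time point. It is not background-subtracted; inactive controls average about 0.047.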
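Further: Bxb1 expression induced with 0.2% (w/v) L-rhamnose at OD600 near 0.5, cultures sampled hourly, flipped fraction per protease–substrate barcode pair counted by paired-end Illumina sequencing.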

| Variant | area with substrate ENLAFQS | area with substrate ENLCFQS | area with substrate ENLDFQS | area with substrate ENLEFQS | area with substrate ENLFFQS | area with substrate ENLHFQS | area with substrate ENLIFQS | area with substrate ENLKFQS | area with substrate ENLLFQS | area with substrate ENLNFQS | area with substrate ENLRFQS | area with substrate ENLSFQS | area with substrate ENLTFQS | area with substrate ENLVFQS | area with substrate ENLMFQS | area with substrate ENLPFQS | area with substrate ENLQFQS | area with substrate ENLWFQS | area with substrate ENLGFQS |
| --- | --- | --- | --- | --- | --- | --- | --- | --- | --- | --- | --- | --- | --- | --- | --- | --- | --- | --- | --- |
| MGEFLFKGPRDYNPISSSICHLTNESDGHTTSLYGIGFGPFIITNKHLFRRNNGTLVVQSLHGVFKVKDTTTLQQHLVDGRDMIIIRMPKDFPPFPQKLKFREPQREERICLVTTNFQTKSMSSMVSDTSCTFPSGDGIFWKHWIQTKDGQCGSPLVSTRDGFIVGIHSASNFTNTNNYFTSVPKNFMELLTNQEAQQWVSGWRLNADSVLWGGHKVFMVKPEEPFQPVKEATQL [S4F] | 0.0701 | 0.086 | 0.0631 | 0.0642 | 0.0988 | 0.079 | 0.111 | 0.0974 | 0.0794 | 0.059 | 0.083 | 0.0646 | 0.0823 | 0.0949 |  |  |  |  |  |
| MGESLFKGPRDYNPISSSIKHLTNESDGHTTSLYGIGFGPFIITNKHLFRRNNGTLVVQSLHGVFKVKDTTTLQQHLVDGRDMIIIRMPKDFPPFPQKLKFREPQREERICLVTTNFQTKSMSSMVSDTSCTFPSGDGIFWKHWIQTKDGQCGSPLVSTRDGFIVGIHSASNFTNTNNYFTSVPKNFMELLTNQEAQQWVSGWRLNADSVLWGGHKVFMVKPEEPFQPVKEATQL [C20K] | 0.0583 | 0.0479 | 0.0505 | 0.0454 | 0.0446 | 0.0478 |  | 0.0526 | 0.0489 | 0.042 | 0.0535 | 0.0345 | 0.0627 | 0.0474 | 0.0508 | 0.0512 | 0.0472 | 0.0484 |  |
| MGESLFKGPRDYNQISSSICHLTNESDGHTTSLYGIGFGPFIITNKHLFRRNNGTLVVQSLHGVFKVKDTTTLQQHLVDGRDMIIIRMPKDFPPFPQKLKFREPQREERICLVTTNFQTKSMSSMVSDTSCTFPSGDGIFWKHWIQTKDGQCGSPLVSTRDGFIVGIHSASNFTNTNNYFTSVPKNFMELLTNQEAQQWVSGWRLNADSVLWGGHKVFMVKPEEPFQPVKEATQL [P14Q] | 0.0669 |  | 0.063 |  | 0.0897 | 0.0747 | 0.1 | 0.0866 |  | 0.069 | 0.0903 | 0.0625 |  |  |  | 0.061 |  | 0.0539 |  |
| MGESLFKGPRDYNVISSSICHLTNESDGHTTSLYGIGFGPFIITNKHLFRRNNGTLVVQSLHGVFKVKDTTTLQQHLVDGRDMIIIRMPKDFPPFPQKLKFREPQREERICLVTTNFQTKSMSSMVSDTSCTFPSGDGIFWKHWIQTKDGQCGSPLVSTRDGFIVGIHSASNFTNTNNYFTSVPKNFMELLTNQEAQQWVSGWRLNADSVLWGGHKVFMVKPEEPFQPVKEATQL [P14V] | 0.0675 | 0.068 | 0.0646 | 0.0612 | 0.0867 | 0.0611 | 0.0635 | 0.053 | 0.0647 | 0.0659 | 0.0768 | 0.0695 |  |  |  | 0.0724 | 0.0881 | 0.054 | 0.0544 |
| MGESLRKGPRDYNPISSSICHLTNESDGHTTSLYGIGFGPFIITNKHLFRRNNGTLVVQSLHGVFKVKDTTTLQQHLVDGRDMIIIRMPKDFPPFPQKLKFREPQREERICLVTTNFQTKSMSSMVSDTSCTFPSGDGIFWKHWIQTKDGQCGSPLVSTRDGFIVGIHSASNFTNTNNYFTSVPKNFMELLTNQEAQQWVSGWRLNADSVLWGGHKVFMVKPEEPFQPVKEATQL [F6R] | 0.0731 | 0.0892 | 0.0565 |  | 0.0921 |  |  | 0.0756 | 0.075 |  |  |  |  |  |  | 0.0646 |  |  |  |
| MGESLFKGPRDFNPISSSICHLTNESDGHTTSLYGIGFGPFIITNKHLFRRNNGTLVVQSLHGVFKVKDTTTLQQHLVDGRDMIIIRMPKDFPPFPQKLKFREPQREERICLVTTNFQTKSMSSMVSDTSCTFPSGDGIFWKHWIQTKDGQCGSPLVSTRDGFIVGIHSASNFTNTNNYFTSVPKNFMELLTNQEAQQWVSGWRLNADSVLWGGHKVFMVKPEEPFQPVKEATQL [Y12F] | 0.0733 | 0.0783 | 0.0795 | 0.0719 | 0.0986 |  | 0.0721 | 0.0706 | 0.0763 | 0.0682 | 0.0462 | 0.0572 |  | 0.0829 |  | 0.0513 | 0.0818 | 0.0634 | 0.0641 |
| MGESYFKGPRDYNPISSSICHLTNESDGHTTSLYGIGFGPFIITNKHLFRRNNGTLVVQSLHGVFKVKDTTTLQQHLVDGRDMIIIRMPKDFPPFPQKLKFREPQREERICLVTTNFQTKSMSSMVSDTSCTFPSGDGIFWKHWIQTKDGQCGSPLVSTRDGFIVGIHSASNFTNTNNYFTSVPKNFMELLTNQEAQQWVSGWRLNADSVLWGGHKVFMVKPEEPFQPVKEATQL [L5Y] | 0.0712 |  | 0.0292 |  | 0.0693 |  |  |  |  | 0.0615 |  | 0.0479 |  |  | 0.0627 |  |  | 0.0193 |  |
| MGESLFNGPRDYNPISSSICHLTNESDGHTTSLYGIGFGPFIITNKHLFRRNNGTLVVQSLHGVFKVKDTTTLQQHLVDGRDMIIIRMPKDFPPFPQKLKFREPQREERICLVTTNFQTKSMSSMVSDTSCTFPSGDGIFWKHWIQTKDGQCGSPLVSTRDGFIVGIHSASNFTNTNNYFTSVPKNFMELLTNQEAQQWVSGWRLNADSVLWGGHKVFMVKPEEPFQPVKEATQL [K7N] | 0.0623 |  | 0.0645 |  | 0.107 | 0.0626 | 0.0979 | 0.0766 |  | 0.0745 |  | 0.0747 |  |  |  | 0.0715 | 0.0691 |  | 0.063 |
| MGESLFPGPRDYNPISSSICHLTNESDGHTTSLYGIGFGPFIITNKHLFRRNNGTLVVQSLHGVFKVKDTTTLQQHLVDGRDMIIIRMPKDFPPFPQKLKFREPQREERICLVTTNFQTKSMSSMVSDTSCTFPSGDGIFWKHWIQTKDGQCGSPLVSTRDGFIVGIHSASNFTNTNNYFTSVPKNFMELLTNQEAQQWVSGWRLNADSVLWGGHKVFMVKPEEPFQPVKEATQL [K7P] | 0.0737 | 0.0797 | 0.068 | 0.0637 |  |  | 0.0674 | 0.0816 |  | 0.0657 | 0.0757 | 0.0703 | 0.0578 |  |  | 0.0535 |  | 0.0652 |  |
